The target of one assay is T1, human IL2Rα-Fc (human, UniProt P01589 22-240).
T1 construct: IL2 receptor alpha subunit, human; Probably the extracellular domain fused to Fc; Captured by anti-human Fc antibody; also called IL2 receptor alpha subunit; source: bought: Symansis
T1 sequence (looked up): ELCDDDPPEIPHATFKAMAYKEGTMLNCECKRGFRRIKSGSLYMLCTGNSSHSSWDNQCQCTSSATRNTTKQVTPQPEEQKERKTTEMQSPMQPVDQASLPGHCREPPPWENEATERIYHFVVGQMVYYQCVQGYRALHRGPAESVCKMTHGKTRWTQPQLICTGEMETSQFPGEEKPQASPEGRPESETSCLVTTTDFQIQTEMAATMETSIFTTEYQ
Briefly: SPR; Biacore X-100; CM5 chip coated with anti-human Fc antibody (5000 RU); IL2Rα-Fc, IL2Rβ-Fc or a 1:1 mixture of each captured at 10 ug/mL in HBSP with 0.1 mg/mL BSA; analytes in 5 3-fold dilutions from 100 nM (IL2) or 300 nM (NKTR-214-AC), 3 minutes each; fit to a 1:1 model, Kd from kd/ka. To be noted: both partners purified. Background: Surface plasmon resonance follows binding to a sensor surface in real time, without labels.

For another assay, the target named is T2, human IL2Rβ-Fc (human, UniProt P14784 27-240).
T2 construct: IL2 receptor beta subunit, human; Probably the extracellular domain fused to Fc; Captured by anti-human Fc antibody; also called IL2 receptor beta subunit; source: bought: Symansis
T2 sequence (looked up): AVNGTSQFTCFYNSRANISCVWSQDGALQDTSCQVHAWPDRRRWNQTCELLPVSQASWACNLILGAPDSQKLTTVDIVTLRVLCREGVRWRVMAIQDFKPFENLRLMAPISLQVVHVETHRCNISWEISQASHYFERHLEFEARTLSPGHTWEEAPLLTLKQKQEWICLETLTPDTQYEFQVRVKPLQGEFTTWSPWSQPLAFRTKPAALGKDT
The assay is described as above. As to conditions: both partners purified.

B1: interleukin-2 (IL2), aldesleukin sequence (ligand)
chain: not shown
notes: interleukin-2, human; also called free-IL2; recombinant interleukin-2 human
As for B1, in the assay with human IL2Rα-Fc, the Kd (in general, the concentration at which binding is half-saturated) was 8.57 nM; the koff – broadly, the first-order rate constant of dissociation – was determined as 0.415 s⁻¹; the association rate constant (kon) (in general, the rate constant with which the complex forms) was 4.84e+07 M⁻¹ s⁻¹. In the assay with human IL2Rβ-Fc, the Kd came out at 239 nM, the koff turned out to be 0.301 s⁻¹ and the association rate constant (kon) is 1.26e+06 M⁻¹ s⁻¹.

The values are drawn from paper PMC5497954 (PLoS ONE, 2017).
